The record followed here is ChEMBL document CHEMBL1201862, “PubChem BioAssay data set” (2004).

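These data come from cells grown in 96-well plates and exposed to compound for 48 hours at five concentrations. Abbreviation: GI50, concentration required for 50% inhibition of growth.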 Active and inactive are the calls of the source. Cut-off read from the data, not from the text of the source: active = GI50 up to about 1.1 µM and inactive = higher.

The test system of this test is NCI-H322M. Kind of test: NCI-60 cell line screen, 48 h.
`CC(C)CC1c2[nH]c3ccccc3c2C[C@H]2C(=O)NC(CCC(=O)OC(C)(C)C)C(=O)N12` (stereo partly drawn): the GI50 is inactive: 41.4 µM.
As for `NCCSCc1ccccc1Cl`, the figure is inactive: > 100 µM; as for `O=C(CCN1CCOCC1)Nc1ccc(F)cc1F`, inactive: > 100 µM.
As to `COc1cc2cc(C(=O)N3CC(COS(C)(=O)=O)c4ccc(O)cc43)[nH]c2c(OC)c1OC` (stereo not drawn), the GI50 is active: 0.00132 µM.
For `O=C(c1ccc(Cl)cc1)N1N=C(c2ccc(Cl)cc2)CC1(O)c1cc(F)c(Cl)cc1Cl` (stereo not drawn), the GI50 was inactive: 17.8 µM.
Turning to `C#CCCOC(=O)CC1=C(C)/C(=C/c2ccc([S+](C)[O-])cc2)c2ccc(F)cc21` (stereo not drawn), the GI50 was inactive: 19.1 µM.
As for `COc1cccc(CC(=O)N2CCN(CCCc3ccccc3)CC2)c1`, the figure is inactive: > 100 µM; as for `O=C(c1ccccc1)[C@H]1Nc2cnccc2C2c3ccccc3CC21` (stereo partly drawn), inactive: 48.6 µM.
For `CCOc1ncn(-c2ccc(NC(=S)Nc3cccc(O)c3)cc2)n1`, the GI50 is inactive: > 100 µM.
Take `O=C1Cc2c(-c3ccc(Cl)cc3)cc(-c3ccccc3)nc2-c2ccccc2N1`: the GI50 was inactive: 8.24 µM.
The value for `Nc1ccc2c(c1)C(=O)c1c(F)cccc1-2` was inactive: 56.6 µM; that for `COc1cc2oc(-c3ccc4c(c3)OCO4)c(OC)c(=O)c2c(OC)c1OC` was inactive: > 100 µM; that for `CC1CCc2sc3nc(S)n(-c4ccccc4)c(=O)c3c2C1` (stereo not drawn) was inactive: 68.2 µM.
For the compound `COC(=O)C(Cc1nc2ccccc2nc1C)/C(=N\NC(N)=O)C(=O)Nc1cccc([N+](=O)[O-])c1` (stereo not drawn), the GI50 is inactive: > 100 µM.
In the case of `CCCCc1ccc(C#CC#Cc2ccc(CCCC)s2)s1`, the GI50 was inactive: > 100 µM.
The value for `CCCCNC(=S)N/N=C/c1cccc(C)n1` was inactive: 56.1 µM.
As for `COc1ccccc1NC(=O)C(=O)C(C#N)CC(C)(C)C=O` (stereo not drawn), the figure is inactive: > 100 µM; as for `O=c1[nH]c(=S)c2cc3c(=S)[nH]c(=O)n(CCC(c4ccccc4)(c4ccccc4)c4ccccc4)c3nc2n1CCC(c1ccccc1)(c1ccccc1)c1ccccc1`, inactive: > 100 µM; as for `C=CCCC(=O)CC(O)(C(F)(F)F)C(F)(F)F`, inactive: > 100 µM.
As for `O=C1CSC(c2c[nH]c3ccccc23)N1c1cccc(Cl)c1` (stereo not drawn), the figure is inactive: 45.7 µM.
As for `CCOC(=O)c1cccc([N+](=O)[O-])c1N`, the GI50 is inactive: > 100 µM.
With `COc1nc(C(=O)O)c(Cl)c(OC)c1Cl`, the GI50 is inactive: > 100 µM.
As for `Nc1cc2c(nnn2C2OC(COCc3ccccc3)C(OCc3ccccc3)C2OCc2ccccc2)c(=O)[nH]1` (stereo not drawn), the figure is inactive: 27.4 µM; as for `CCOC(=O)/C(C#N)=C\C=C1/C=CN=C2NCCN21`, inactive: > 100 µM.
Take `NC(=S)N/N=C/C(=C/Nc1ccccc1)[N+](=O)[O-]`: the GI50 is inactive: > 100 µM.
On to `N=C(N)NS(=O)(=O)c1ccc(NNc2c3ccccc3nc3c(C(=O)Nc4ccc(S(N)(=O)=O)cc4)cccc23)cc1`, for which the GI50 is inactive: 32.4 µM.
As for `Cn1c2ccccc2c(=NNc2ccccc2C(=O)O)c2ccccc21`, the figure is inactive: 19.4 µM.
As for `COc1ccc(C2N3CCCCC3[C@@H]3c4[nH]c5ccccc5c4CCN23)c(OC)c1` (stereo partly drawn), the figure is inactive: 37.5 µM.
`O=C(NNC(=O)c1ccncc1)C(=O)Nc1cc(Cl)c(Cl)cc1Cl`: the GI50 is inactive: > 100 µM.
As to `COC(=O)[C@@](NC(=O)OCc1ccccc1)([C@H](C)O)C(F)(F)F`, the GI50 was inactive: > 100 µM.
Regarding `O=C(/C=C1\Nc2ncccc2N=C1CC(=O)c1ccccc1)c1ccccc1`, the GI50 is inactive: 14.8 µM.
As to `CC[S+]([O-])c1c2cc(OC)ccc2nc2ccc(OC)cc12` (stereo not drawn), the GI50 is inactive: 18.4 µM.
The value for `CC12CC(Sc3ccccc3N1)c1ccccc1O2` (stereo not drawn) was inactive: 17.7 µM.
